The test has as its target VEGFR-2 in the HepG2 cell line (Homo sapiens, UniProt P35968). The test is described as follows: In vitro cell-based VEGFR-2 inhibition, ELISA kit. As to conditions: HepG2 cells, 48 h; for % Inhibition of VEGFR-2 in HepG2 Cell Line: compound at its previously determined IC50 / 1/10 of IC50, relative to negative control; for Amount of VEGFR-2: mean ± S.E. of two experiments, DMSO control 185.20 ± 21.85.

For the compound `CC(C)c1nc2ccccc2n1CC(=O)N/N=C/c1ccc(OCc2ccccc2)cc1` [Compound 17c, (E)-N′-(4-(Benzyloxy)benzylidene)-2-(2-isopropyl-1H-benzo[d]imidazol-1-yl)acetohydrazide], the “% Inhibition of VEGFR-2 in HepG2 Cell Line” value (“% Inhibition” below) is given as 64% and the “Amount of VEGFR-2” value was determined as 66.13 ± 9.11 ng/mL.

`COc1ccc(/C=N/NC(=O)Cn2c(C(C)C)nc3ccccc32)cc1` [Compound 13d, (E)-2-(2-Isopropyl-1H-benzo[d]imidazol-1-yl)-N′-(4-methoxybenzylidene)acetohydrazide]: the “% Inhibition” value amounted to 78% and the “Amount of VEGFR-2” value is reported as 39.90 ± 4.60 ng/mL. For `Cc1ccc(S(=O)(=O)NC(=O)NNC(=O)Cn2c(C(C)C)nc3ccccc32)cc1` [Compound 24a, 2-(2-(2-Isopropyl-1H-benzo[d]imidazol-1-yl)acetyl)-N-tosylhydrazine-1-carboxamide], in that order: 10% and 166.00 ± 19.50 ng/mL. As to `COc1ccc(NC(=S)NNC(=O)Cn2c(-c3ccc(C)o3)nc3ccccc32)cc1` [Compound 24c, N-(4-Methoxyphenyl)-2-(2-(2-(5-methylfuran-2-yl)-1H-benzo[d]imidazol-1-yl)acetyl)hydrazine-1-carbothioamide], the “Amount of VEGFR-2” value was determined as 74.18 ± 9.70 ng/mL.

For `Cc1ccc(-c2nc3ccccc3n2CC(=O)N/N=C/c2ccc(OCc3ccccc3)cc2)o1` [Compound 17d, (E)-N′-(4-(Benzyloxy)benzylidene)-2-(2-(5-methylfuran-2-yl)-1H-benzo[d]imidazol-1-yl)acetohydrazide], the “% Inhibition” value amounted to 56% and the “Amount of VEGFR-2” value was 81.70 ± 9.16 ng/mL. For the compound `COc1cc(C=O)ccc1OCCOc1ccc(/C=N/NC(=O)Cn2c(C(C)C)nc3ccccc32)cc1OC` [Compound 22a, (E)-N′-(4-(2-(4-Formyl-2-methoxyphenoxy)ethoxy)-3-methoxybenzylidene)-2-(2-isopropyl-1H-benzo[d]imidazol-1-yl)acetohydrazide], the “% Inhibition” value was 1% and the “Amount of VEGFR-2” value is 183.00 ± 19.00 ng/mL. For `COC(=O)COc1ccc(/C=N/NC(=O)Cn2c(-c3ccc(C)o3)nc3ccccc32)cc1OC` [Compound 19b, Methyl-(E)-2-(2-methoxy-4-((2-(2-(2-(5-methylfuran-2-yl)-1H-benzo[d]imidazol-1-yl)acetyl)hydrazono)methyl)phenoxy)acetate], in that order: 9% and 168.80 ± 16.21 ng/mL. In the case of `Cc1ccc(/C=N/NC(=O)Cn2c(C(C)C)nc3ccccc32)o1` [Compound 13h, (E)-2-(2-Isopropyl-1H-benzo[d]imidazol-1-yl)-N′-((5-methylfuran-2-yl)methylene)acetohydrazide], the “% Inhibition” value worked out at 6% and the “Amount of VEGFR-2” value is recorded as 173.80 ± 15.76 ng/mL. `C/C(=N\NC(=O)Cn1c(C(C)C)nc2ccccc21)c1ccc(Br)cc1` [Compound 14c, (E)-N′-(1-(4-Bromophenyl)ethylidene)-2-(2-isopropyl-1H-benzo[d]imidazol-1-yl)acetohydrazide]: the “% Inhibition” value was determined as 3% and the “Amount of VEGFR-2” value worked out at 180.50 ± 21.00 ng/mL. As to `COc1ccc(NC(=S)NNC(=O)Cn2c(C(C)C)nc3ccccc32)cc1` [Compound 24b, 2-(2-(2-Isopropyl-1H-benzo[d]imidazol-1-yl)acetyl)-N-(4-methoxyphenyl)hydrazine-1-carbothioamide], the “Amount of VEGFR-2” value was 68.81 ± 8.14 ng/mL.

Consider `CC(C)c1nc2ccccc2n1CC(=O)N/N=C/c1cccc(O)c1` [Compound 13b, (E)-N′-(3-Hydroxybenzylidene)-2-(2-isopropyl-1H-benzo[d]imidazol-1-yl)acetohydrazide], for which the “% Inhibition” value was 4% and the “Amount of VEGFR-2” value turned out to be 177.11 ± 20.67 ng/mL. In the case of `C/C(=N\NC(=O)Cn1c(C(C)C)nc2ccccc21)c1ccccc1` [Compound 14a, (E)-2-(2-Isopropyl-1H-benzo[d]imidazol-1-yl)-N′-(1-phenylethylidene)acetohydrazide], the “% Inhibition” value stood at 51% and the “Amount of VEGFR-2” value came to 90.00 ± 8.65 ng/mL. As for `COC(=O)COc1ccc(/C=N/NC(=O)Cn2c(C(C)C)nc3ccccc32)cc1OC` [Compound 19a, Methyl-(E)-2-(4-((2-(2-(2-isopropyl-1H-benzo[d]imidazol-1-yl)acetyl)hydrazono)methyl)-2-methoxyphenoxy)acetate], the “% Inhibition” value was determined as 6.5% and the “Amount of VEGFR-2” value came out at 173.16 ± 19.66 ng/mL. Take `Cc1ccc(-c2nc3ccccc3n2CC(=O)N/N=C/c2cccc(OCc3ccccc3)c2)o1` [Compound 17b, (E)-N′-(3-(Benzyloxy)benzylidene)-2-(2-(5-methylfuran-2-yl)-1H-benzo[d]imidazol-1-yl)acetohydrazide]: the “% Inhibition” value was 78% and the “Amount of VEGFR-2” value is 40.12 ± 5.70 ng/mL. Take `COc1cc(/C=N/NC(=O)Cn2c(C(C)C)nc3ccccc32)ccc1OCc1ccccc1` [Compound 17e, (E)-N′-(4-(Benzyloxy)-3-methoxybenzylidene)-2-(2-isopropyl-1H-benzo[d]imidazol-1-yl)acetohydrazide]: the “% Inhibition” value came to 67% and the “Amount of VEGFR-2” value was found to be 61.86 ± 7.85 ng/mL. In the case of `COc1cc(/C=N/NC(=O)Cn2c(C(C)C)nc3ccccc32)ccc1O` [Compound 13g, (E)-N′-(4-Hydroxy-3-methoxybenzylidene)-2-(2-isopropyl-1H-benzo[d]imidazol-1-yl)acetohydrazide], the “% Inhibition” value came out at 64% and the “Amount of VEGFR-2” value turned out to be 66.00 ± 8.35 ng/mL. In the same order, the values of `CC(C)c1nc2ccccc2n1CC(=O)c1ccc(C#N)cc1` [Compound 6, 4-(2-(2-Isopropyl-1H-benzo[d]imidazol-1-yl)acetyl)benzonitrile] are 80% and 37.11 ± 3.00 ng/mL. In the same order, the values of `COc1ccc(OC)c(/C=N/NC(=O)Cn2c(C(C)C)nc3ccccc32)c1` [Compound 13f] are 78% and 41.10 ± 3.88 ng/mL. For `CCOC(=O)COc1ccc(/C=N/NC(=O)Cn2c(C(C)C)nc3ccccc32)cc1OC` [Compound 19c, Ethyl-(E)-2-(4-((2-(2-(2-isopropyl-1H-benzo[d]imidazol-1-yl)acetyl)hydrazono)methyl)-2-methoxyphenoxy)acetate], in that order: 4% and 177.10 ± 18.80 ng/mL. Regarding `C/C(=N\NC(=O)Cn1c(C(C)C)nc2ccccc21)c1ccccc1C` [Compound 14b, (E)-2-(2-Isopropyl-1H-benzo[d]imidazol-1-yl)-N′-(1-(o-tolyl)ethylidene)acetohydrazide], the “% Inhibition” value is 61% and the “Amount of VEGFR-2” value is on record as 72.60 ± 9.14 ng/mL. For `C/C(=N\NC(=O)Cn1c(C(C)C)nc2ccccc21)c1ccc(Br)c([N+](=O)[O-])c1` [Compound 14d, (E)-N′-(1-(4-Bromo-3-nitrophenyl)ethylidene)-2-(2-isopropyl-1H-benzo[d]imidazol-1-yl)acetohydrazide], in that order: 9% and 169.12 ± 16.80 ng/mL. For the compound `CC(C)c1nc2ccccc2n1CC(=O)N/N=C/c1cccc(OCc2ccccc2)c1` [Compound 17a, (E)-N′-(3-(Benzyloxy)benzylidene)-2-(2-isopropyl-1H-benzo[d]imidazol-1-yl)acetohydrazide], the “% Inhibition” value is reported as 82% and the “Amount of VEGFR-2” value is 34.00 ± 4.28 ng/mL.

With `CC(C)c1nc2ccccc2n1CC(=O)N/N=C/c1ccc(N(C)C)cc1` [Compound 13e, (E)-N′-(4-(Dimethylamino)benzylidene)-2-(2-isopropyl-1H-benzo[d]imidazol-1-yl)acetohydrazide], the “% Inhibition” value came to 10% and the “Amount of VEGFR-2” value was 165.71 ± 18.20 ng/mL.

For `COc1cc(C=O)ccc1OCCOc1ccc(/C=N/NC(=O)Cn2c(-c3ccc(C)o3)nc3ccccc32)cc1OC` [Compound 22b, (E)-N′-(4-(2-(4-Formyl-2-methoxyphenoxy)ethoxy)-3-methoxybenzylidene)-2-(2-(5-methylfuran-2-yl)-1H-benzo[d]imidazol-1-yl)acetohydrazide], the “% Inhibition” value is reported as 13% and the “Amount of VEGFR-2” value was 160.85 ± 15.70 ng/mL. As to `CC(C)c1nc2ccccc2n1CC(=O)N/N=C/c1ccc(O)cc1` [Compound 13c, (E)-N′-(4-Hydroxybenzylidene)-2-(2-isopropyl-1H-benzo[d]imidazol-1-yl)acetohydrazide], the “% Inhibition” value turned out to be 8% and the “Amount of VEGFR-2” value worked out at 170.85 ± 20.38 ng/mL.

As to `COc1cc(/C=N/NC(=O)Cn2c(-c3ccc(C)o3)nc3ccccc32)ccc1OCc1ccccc1` [Compound 17f, (E)-N′-(4-(Benzyloxy)-3-methoxybenzylidene)-2-(2-(5-methylfuran-2-yl)-1H-benzo[d]imidazol-1-yl)acetohydrazide], the “% Inhibition” value was determined as 14% and the “Amount of VEGFR-2” value was found to be 158.60 ± 19.35 ng/mL. Turning to `CC(C)c1nc2ccccc2n1CC(=O)N/N=C/c1ccccc1Cl` [Compound 13a, (E)-N′-(2-Chlorobenzylidene)-2-(2-isopropyl-1H-benzo[d]imidazol-1-yl)acetohydrazide], the “% Inhibition” value was 5.5% and the “Amount of VEGFR-2” value was 175.00 ± 15.65 ng/mL.

The values above are taken from PMC7071059, “Targeting Receptor Tyrosine Kinase VEGFR-2 in Hepatocellular Cancer: Rational Design, Synthesis and Biological Evaluation of 1,2-Disubstituted Benzimidazoles” (Molecules, 2020).
